One protein from PMC2686402 (The Journal of Cell Biology, 2009) can be followed below.

In general, stoichiometry N refers to the number of molecules, sites or subunits per partner or assembly.

The data set deals with the molecule itself. Nature of the data set: SEC-MALS. (In general: In gel filtration, larger molecules generally elute earlier.)

B1: GFP-EB3 with 6xHIS tag, purified full-length EB3 fusion (natural protein)
chain: not shown
Turning to B1, the “stoichiometry N” value was 2.
